Assay results: the supplement of paper PMC11417369
± gives the standard deviation of the averaged measurements. Some of the results follow.

System: PfAP2-G AP2 domain (GST-tagged)
Assay: gcPBM binding intensity (ln(normalized median fluorescence intensity)); higher = stronger DNA binding
Method in brief: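 In this array assay, P. falciparum DNA-binding domains with a GST tag, expressed in E. coli, were applied for 1 h to primer-extended double-stranded 36-bp intergenic genomic probes and negative controls on an Agilent 4 × 180k array. Bound protein was visualised with Alexa488 anti-GST antibody at 488 nm. Binding intensity is the highest Masliner-normalised natural-log median intensity across replicate spots of either probe orientation.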

In order of rising “gcPBM binding intensity (ln)” value:
1. TATAAAAATAAATAAATAAATAAATAAATAAATAAA [TGCATGCA_negctrl_site310]  9.41 ± 0.25
2. AAAAAATAAAAAAATAAAAAATAAAAAATAAAAAAT [TGCATGCA_negctrl_site90]  9.46 ± 0.13
3. AAAGAACAAATAAAACATAAAATAATATATATAGAT [CACACA_negctrl_site1764]  9.58 ± 0.23
4. TTTTTTTTTTTTTTTTTTTGATTCTTATAAAAATTT [GTGCAC_negctrl_site240]  9.59 ± 0.42
5. TTTTATGTTTTTTTTATAAATATTAAAATTCTATAT [CACACA_negctrl_site1477]  9.62 ± 0.028
6. AGCTATTAATTTATTACATGCAAGATTAAAAGACTA [TGCATGCA_site281]  9.62 ± 0.085
7. TATTATTCCAAGAAAAAAAAAAATAAAAAAAAAAAA [CACACA_negctrl_site1424]  9.62 ± 0.13
8. AAAAAAAAAAAATACACACACACATATAAATATGTA [CACACA_site6900]  9.665 ± 0.092
9. AATATTTTGTTATTTATTTAATCTAATATTATGATA [GTGCAC_negctrl_site258]  9.69
10. ATAATTTGATCAATTTTTCATTTTTCATTTTTTTAA [CACACA_negctrl_site1252]  9.72 ± 0.21
11. TACAAACAATTAAACAAACACACATATACATGTATA [CACACA_site2061]  9.75 ± 0.18
12. GTTTATATATGCTTATAATTTTCAATTGTTTTACAA [TGCATGCA_negctrl_site384]  9.805 ± 0.007
13. AATCAAAATTCATTAACACACAATTTTAATATTCTT [CACACA_site5178]  9.84 ± 0.085
14. CAAACAATTAAACAAACACACATATACAAGTATATA [CACACA_site8639]  9.86 ± 0.11
15. AAAATATTTATTACTTCACACATTATTGTATTTATA [CACACA_site5082]  9.86 ± 0.16
16. AAAAAAAAAAAAAAATCACACATTGGTTAAATATTA [CACACA_site5344]  9.865 ± 0.007
17. TATATTTTTATAATAACACACGATATATGTTTAGGA [CACACA_site1283]  9.88 ± 0.13
18. TATAAATACATCCTATACTTCTCTTTTACAGTTTTA [CACACA_negctrl_site1283]  9.89 ± 0.29
19. TTAACATATGACATTTTTTCACCCTTCCTTTATTTT [CACACA_negctrl_site1192]  9.89 ± 0.042
20. AAGATATTTGAATATACACACGATTTAAATTTAATA [CACACA_site3866]  9.9 ± 0.014
21. TTTTTAGTTAATTAAACACACAAAAAAAAAAATAAA [CACACA_site3930]  9.915 ± 0.064
22. AAATTATATAAAGGAACACACATTTTATTTTATTTT [CACACA_site1500]  9.915 ± 0.078
23. CTATCAAATAATAGCAAACACACAAAAAATAAAAAA [CACACA_site4147]  9.96 ± 0.18
24. TATATTTGGTTTCATTCATTTTTATAGAAATCTCAA [CACACA_negctrl_site1412]  10.015 ± 0.007
25. AATGACTACATAATAGTGCAATATTAAAGAAAATTA  10 ± 0.27
26. TTTTAACAAAACAAAACAAAATAATATAAAGATAAC [TGCATGCA_negctrl_site154]  10.02 ± 0.071
27. ATGATATGGATAAATACACACAATAAAATAATGTCT [CACACA_site6786]  10.02 ± 0.042
28. TTCTTTCTGTTTTATTTATAATAATTTATGATAAAA [CACACA_negctrl_site766]  10 ± 0.2
29. GACATTAATTATTTGACACACGACTGGGTGGTGATT [CACACA_site306]  10.09 ± 0.021
30. TGATTCAATTTATGCACACTAAAAATTAATTATATT [CACACA_site271]  10.1 ± 0.13
31. ATATTTACTCACGTCTTGCACTGAGCAAGCATTATA  10.1 ± 0.11
32. TTTTTTTTTTTCTCCATACACACTTGATAAAACTTT [CACACA_site615]  10.1 ± 0.33
33. AGGTGAATATTTTTTACACACATAAAAAAAATATAT [CACACA_site57]  10.1 ± 0.092
34. TATTTTTATAAGAGCATGCACTGTTTAAAATGGTAT  10.1 ± 0.23
35. ATTTTTTATGAAAACATAAAAAAATGAGATAACCAT [CACACA_negctrl_site894]  10.2 ± 0.28
36. AATATTTTTATATATATACACACTTACATATATATA [CACACA_site3609]  10.2 ± 0.39
37. ATTTTTTCATATTCTACACACGTGAACAAATGTGTC [CACACA_site3007]  10.2 ± 0.12
38. AAAAATTACCCATCCATACACACATATTTTTTTTAA [CACACA_site2190]  10.2 ± 0.064
39. CATATATTATTATATGCACACATGAAAATATACAAA [CACACA_site2795]  10.2 ± 0.2
40. AAAGTTGTTACGAACATACACACGAACATACTCACG [CACACA_site604]  10.23 ± 0.042
41. TAGAATATCCCCTACACACCCAAATAATTTACAAAT [CACACA_site4825]  10.18 ± 0.049
42. TATTTTTGAAGTTGCACACACAAAAATAAAAAGTAT [CACACA_site418]  10.3 ± 0.35
43. TATATATTGCCCTTCACACACACACCCATATATATA [CACACA_site2493]  10.3 ± 0.28
44. CACACGTATATATATACACACTAAAATACCCAGACA [CACACA_site6142]  10.3 ± 0.17
45. TAAATAATAATAAATGTGCACAGGTATTAACAAAAA [GTGCAC_site9988]  10.27 ± 0.085
46. TTTGTAAAAGGTCATACACACATATTCAAAAGAAGT [CACACA_site2947]  10.4 ± 0.22
47. TATAAATCTATAAATGCACACAAGGGAAGAAAAACG [CACACA_site2965]  10.4 ± 0.28
48. TGTTTTTAATTTCGCACACACCTTGTGGAAAAAAAA [CACACA_site4482]  10.4 ± 0.47
49. ATAAAATCATTCAATGGTACAGAAATACAAAATGTA [XGTACX_site6739]  10.6 ± 0.36
50. ATACGTGGGCAAAAAGTGCATATAATCAAAAAAAAA [GTGCAC_site9961]  10.6 ± 0.69
51. ACTACGAGTCGTAGAGTGCAGTCTGGAGAAAAGTAC [GTGCAC_site9769]  10.7 ± 0.48
52. ATATATATATATAATTGTACATTTTTAACCTTAACA [XGTACX_site7910]  10.8 ± 0.54
53. ATCAAGCACGAACACACACACACACGCACGCCCACA [CACACA_site6308]  10.8 ± 0.61
54. ATAATATTGTGGTATACACACCTTACAAAAAGGTAC [CACACA_site5582]  10.8 ± 0.45
55. AATTAGCATTAAAAATGTACAAAAGAAAAAAATATA [XGTACX_site3816]  10.8 ± 0.51
56. AGGTCACATTTGTCCTCACACATAGATAAATATATA [CACACA_site5460]  10.9 ± 0.6
57. ATATTGTTATATGTTTGTACATATTTTTTATATTTT [XGTACX_site6834]  11 ± 0.7
58. AATGTTAAAAATGAAAGTACATGGAATTTATTATTT [XGTACX_site4095]  11 ± 0.56
59. TAATTGATTCTTCACCGTACTCACACATATATATAT [XGTACX_site6530]  11 ± 0.59
60. TATTTTTTTACATATTGTACATAATATAAAACTTAC [XGTACX_site8273]  11 ± 0.59
61. GTATATAATTATATATGTACTAAATAAATATTTTTA [XGTACX_site6062]  11 ± 0.73
62. ATTAAAATTTGTTAAAGTACTTAATAAAAATTTTTC [XGTACX_site1959]  11 ± 0.71
63. TTTAAGATTTTGTAATGTACATATATACATATATAT [XGTACX_site399]  11 ± 0.66
64. TTTTTTAAAATATGGACACACATATATATATATGTA [CACACA_site2784]  11 ± 0.64
65. TATGTATAAAAATATTGTACATATTATATATATATA [XGTACX_site2947]  11 ± 0.67
66. AGAAAGAATGAAAAATGTACATATATGTAATAGCTA [XGTACX_site364]  11 ± 0.61
67. ATTTTTTTTTTTTGTACATACCACATATACAAAACA [CACACA_negctrl_site1240]  11.1 ± 0.67
68. TGTATATCATAAGATGGTACACGTGTGTGCGTATGC [XGTACX_site2255]  11.1 ± 0.67
69. TTTTTTTTTTATACATGTACTTAAAAGTAGCACCTT [XGTACX_site1855]  11.2 ± 0.8
70. TCATGTTTTTAATATTGTACTCTCATTTTATATATC [XGTACX_site8412]  11.2 ± 0.98
71. AAAAAAAAAAGACACACACACACACGGACACATACA [CACACA_site7363]  11.2 ± 0.57
72. ATATATTATAAATGTAGTACCGTTACATAGTCATAG [XGTACX_site390]  11.2 ± 0.76
73. ATGTAAGACAAAAAGGGTACATAATGCGTATGTATT [XGTACX_site4666]  11.2 ± 0.69
74. ATATATATATTTGTATGTACATATCATATTGTGTGT [XGTACX_site1580]  11.2 ± 0.73
75. CACACCACCAACAAAAGTACATACATATATATATAT [XGTACX_site5781]  11.3 ± 0.82
76. CAGTATTCTTCTATATGTACTTATTTAAATATTCTT [XGTACX_site7555]  11.3 ± 0.83
77. GTCAAAAATAATATATGTACTTATAATAGATAAATG [XGTACX_site7755]  11.3 ± 0.76
78. GGTATTTATGGACGCGTGCACACACATATGAACAAA  11.4 ± 0.85
79. ATTCATACATGCACACGTACATATTTAAATATAAAA [XGTACX_site8388]  11.4 ± 0.72
80. TTTATTTATTTATGTTGTACAAGTTTATACTGGAAT [XGTACX_site6479]  11.4 ± 0.96
81. TTTTGATATAAAAAAAGTACATTAATAATATTAATT [XGTACX_site4248]  11.4 ± 0.98
82. TTTTGATTTTTTTATTGTACCCATAAACATATAATT [XGTACX_site5202]  11.5 ± 0.99
83. TATTTATACATACGTACACACAAATATTAAAATATA [CACACA_site7004]  11.5 ± 0.96
84. ATATAATAGAAGTGTACACACATATTTATGGGTGTA [CACACA_site5686]  11.5 ± 0.91
85. TTTTCTAAAAAAAGTTGTACATCTTATTTATATTAT [XGTACX_site295]  11.5 ± 1
86. ATTCTTAAAAAAAAATGTACACATGAACAATATGTA [XGTACX_site362]  11.5 ± 0.73
87. TATATATTATATATGTGTACTCACTAACAAAAATTA [XGTACX_site6285]  11.5 ± 1.1
88. TAAAATTTAAAAAGGTGTACACTATAAATTAAAATA [XGTACX_site2081]  11.7 ± 0.95
